PubChem BioAssay AID248 (DTP/NCI, 2004)
Toxic doses and inconclusive results are not listed. Rule as the data show it: active = T/C of 150% or more; inactive = T/C below 125%.

Test system: L1210 leukemia ip in BDF1 mice, survival T/C
Assay: NCI In Vivo Anticancer Drug Screen. Data for tumor model L1210 Leukemia (intraperitoneal) in B6D2F1 (BDF1) mice
Details: endpoint: mean survival time, schedule: Q01DX001 (ip), higher = longer survival
Procedure: The antitumor activity of compounds was measured in mice bearing transplantable tumors. Survival or tumor size were measured and the results are expressed as the measurement made in the treated group (T) divided by the measurement made in the vehicle treated control group (C). The tumor model used in this assay is L1210 Leukemia (intraperitoneal) in B6D2F1 (BDF1) mice

Measured: T/C

CCCCCCCCc1ccc(O)cc1
inactive: dose: 100.0 mg/kg/injection, vehicle: saline with Tween-80 = 105 % of control | dose: 200.0 mg/kg/injection, vehicle: saline with Tween-80 = 105 % of control | dose: 400.0 mg/kg/injection, vehicle: saline with Tween-80 = 102 % of control

O=C(/C=C/c1ccccc1)Nc1ccccc1
inactive: dose: 50.0 mg/kg/injection, vehicle: other 96 % of control | dose: 100.0 mg/kg/injection, vehicle: other 100 % of control | dose: 200.0 mg/kg/injection, vehicle: other 90 % of control | dose: 400.0 mg/kg/injection, vehicle: other 102 % of control
